The source gives no read counts; variants with many changes may rest on few reads.
B1: LINE1-mini (parent)
chain: GGCAGAGCUCAACACAGCGUGGCAAAGUGGCUGUGGCUAGACUGCC

Variants of: B1
Experiment: self-cleavage, relative activity (ratio to wild type); higher = more cleavage; in vitro, sequencing; the parent is a self-cleaving ribozyme

Row | Variant | self-cleavage
1 | C8G A12U G35A | 0.3
2 | C8A A14C C46G | 0.14
3 | C8G C37A U43C | 0.02
4 | C8A G17A A24C C45G | 0.22
5 | C8G G19U A25U | 0.06
6 | C8A C15U C37U U43C G44A | 0.18
7 | C8A G19C G29C | 0.06
8 | C8G C31A U32C G40A | 0.02
9 | C8A A16U U43A | 0.08
10 | C8G C31A G35U | 0.02
11 | C8A C15A G19C G40C | 0.15
12 | C8G A14G C37A C42A G44C | 0.03
13 | C8A A41G U43C | 0.04
14 | C8A A12G G30U | 0.08
15 | C8G A12U A16U C18U G27C U28A C42G | 0.02
16 | C8A G27A U32C | 0.19
17 | C8A A14U C37G | 0.05
18 | C8A A24C A25C | 0.14
19 | C8A G33U G35U G44A | 0.34
20 | C8A A14U C15U G21C U38A | 0.02
21 | C8G G21U U43A C45U | 0.07

Row | Variant | self-cleavage
22 | C8A U34G G35U | 0.08
23 | C8A G21U G40U C42A | 0.59
24 | C8A G17U C37U | 0.02
25 | C8A C13U G21A G35U | 1.16
26 | C8A A14C G22C C23U G27A U32G | 0.03
27 | C8G G17U A24G C46U | 0.02
28 | C8A G19A C46G | 0.07
29 | C8A C18A G22U A26G G29C | 0.09
30 | C8A A24C A26U | 0.22
31 | C8A U9G G36U | 0.11
32 | C8A C13A U38G C42A | 0.07
33 | C8A C23A A25U G30C | 0.22
34 | C8A G21A U38A A39G | 0.78
35 | C8A C13G A41G | 1.39
36 | C8G C15A C37G | 0
37 | C8A A12G A16G | 0.04
38 | C8A G17U C45G | 0.08
39 | C8G A24C G27U G33U G40C | 0.02
40 | G7U U9G G17C G30A | 0.13
41 | C8A A14G C37U | 0.1
42 | C8G C10A G17U A41U C42A C45U | 0.01

Row | Variant | self-cleavage
43 | C8G C15A A26C | 0.02
44 | C8A G21U G40A | 0.07
45 | C8G C13U G30C | 0.06
46 | C8A G36C U38C | 0.32
47 | C8A A11C A25U G33A | 0.03
48 | C8G A16U G17A A24G | 0.09
49 | C8A G36U U43G | 0.03
50 | C8A A14C G33U | 0.15
51 | C8G C31U U32G C45A | 0.02
52 | C8A C18G G33A G35A C42A | 0.05
53 | C8A C15U G35U | 1.07
54 | C8A A25U G29U | 0.41
55 | C8G A11U C23A U32A | 0.01
56 | C8G C13G G36C | 0.01
57 | C8G C13G A14C A24G G36C U38A | 0.09
58 | C8G A14G A16U G44U | 0.02
59 | C8G C10A C15A | 0.05
60 | C8A G40C A41U | 0.33
61 | C8G A14U G40U | 0.03
62 | C8A G33U A39G | 0.1
63 | C8A C10U C13G | 0.12

Row | Variant | self-cleavage
64 | G7U U9G A24G G27C | 0.01
65 | C8G C31A U32G C37A | 0.04
66 | C8G G21C U38A U43A | 0.12
67 | C8G G17C G30A | 0.03
68 | C8G G17A C18U A41U | 0.01
69 | C8G G19A C31U | 0.01
70 | C8G C10A C42G U43A | 0.02
71 | C8A A11U A41U U43G | 0.03
72 | C8G G27A C31A U34A C46U | 0.03
73 | C8A C10A C23A | 0.02
74 | G7U U9G G17A | 0.21
75 | C8A C10G A11U G30C | 0.02
76 | C8A A11U G22C C45U | 0.02
77 | C8A U9C A16C G17C G30C | 0.07
78 | C8G C13A A14C C15U C45U | 0.15
79 | C8G A12C U20A U43G | 0.01
80 | C8G A25U G44C | 0.1
81 | C8G C31G G33U A39G G40A C45U | 0
82 | C8A A11C U28G | 0.02
83 | C8A A25C G29C G35C | 0.03
